# Measured values reported in PubChem BioAssay AID2546 (National Center for Advancing Translational Sciences (NCATS), 2010).
# The campaign covered roughly 310,000 compounds. About 11,000 (3.5%) were called active. Inconclusive results, whose numbers are uncertain, are shown with a selection of clear calls. The call rests on the fitted dose curve; in most records, active means well fitted inhibition curve with a large enough effect; inconclusive means small, poorly fitted or top-dose-only effect, or effect the other way; inactive means flat fitted curve, though single readings scatter. Potencies of inconclusive entries are left out as doubtful fits.
# Assay: VP16 counterscreen qHTS for inhibitors of ROR gamma transcriptional activity;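 further: Gal4-VP16 expression switched on by copper sulfate through the metallothionein promoter; nearly all actives have a fitted effect of over 50% in size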
# Details: Drosophila S2 Gal4-VP16 UAS-luciferase, luminescence, 20 h; series mostly up to 53.6 µM
# Potency means the concentration at half of the fitted maximal effect; tags describe the fitted curve by direction and shape.
row,Compound,Potency
1,COc1ccc([C@]23Cc4cc(OC)c(OC)cc4C(O2)c2c(cc(C)n(Cc4ccccc4)c2=O)O3)cc1,"inconclusive [inhibitor, single point]"
2,COc1ccc(C)cc1NC(=O)c1ccc(CN2CCc3ccccc3C2)cc1,inactive
3,O=C(N/N=C/c1ccc(N2CCOCC2)s1)c1ccccc1Cl,"inconclusive [inhibitor, single point]"
4,CCc1[nH]nc(C(=O)N2CCCC(C(=O)c3cccc(C(F)(F)F)c3)C2)c1C (stereo not drawn),"inconclusive [inhibitor, single point]"
5,COc1ccc(-c2nn(-c3ccccc3)cc2/C=N/Nc2ccccn2)cc1OC,active: 8.91 µM
6,Nc1nc(-c2ccccc2)c(N=Nc2ccccc2Cl)s1,"inconclusive [inhibitor, single point]"
7,CCc1nn(C(C)C(=O)NC(C)CCc2ccco2)c(=O)c2cc3occc3n12 (stereo not drawn),inactive
8,Nc1nonc1-n1nnc(C(=O)N/N=C/C=C/c2ccccc2)c1CSC1=NCCS1,active: 3.16 µM
9,C/C(=N\NC(=O)c1cccs1)C(C)(C)C,"inconclusive [inhibitor, single point]"
10,COc1ccccc1C(=O)OCC(=O)Nc1ccc(OC(F)F)cc1,"inconclusive [inhibitor, single point]"
11,CCOc1ccccc1C(=O)Nc1nnc(CC)s1,"inconclusive [activator, partial curve]"
12,O=C1CC(N2CCCCCC2)C(=O)N1c1ccc2c(c1)OCO2 (stereo not drawn),"inconclusive [inhibitor, single point]"
13,CNC(=O)/C(C#N)=C/c1c(F)cccc1Cl,"inconclusive [inhibitor, single point]"
14,CCOC(=O)N1CCC(NC(=O)CCC(=O)N2CCOc3ccc(C)cc32)CC1,"inconclusive [inhibitor, single point]"
15,Cc1ccc(Cl)cc1NC(=O)c1ccccc1OCC(=O)Nc1ccc(Cl)cc1,active: 11.2 µM
16,CCOC(=O)c1cnc2ccc(Br)cc2c1NCCO,inactive
17,O=C(NC(=S)NCc1ccccc1)c1cccnc1,"inconclusive [inhibitor, single point]"
18,Cc1c(C(=O)Nc2ccc(Cc3ccncc3)cc2)cccc1[N+](=O)[O-],"inconclusive [inhibitor, single point]"
19,Cc1cc(C)n2nc(SCc3nnc(SCc4ccccc4C)s3)nc2n1,inactive
20,c1ccc2c(c1)Sc1ccccc1N2CCN1CCCC1,inactive
21,O=C(CCC(=O)N1CCN(c2ccc(F)cc2)CC1)c1ccccc1,"inconclusive [inhibitor, single point]"
22,CCN(CC)CCn1c(=S)[nH]c2cc(Cl)ccc2c1=O,"inconclusive [inhibitor, single point]"
23,O=c1[nH]c2ccc(Cl)cc2c(-c2ccccc2)c1SC(=S)N1CCOCC1,active: 4.47 µM
24,CC(C)(C)c1cc(CN2CCCCC2)cc(C(C)(C)C)c1O,"inconclusive [inhibitor, single point]"
25,COc1ccnc(CSC(N)=Nc2ccc(F)cc2)c1,"inconclusive [inhibitor, single point]"

row,Compound,Potency
1,O=C(N/N=C/c1cccc(O)c1)c1ccc(COc2ccccc2Br)cc1,"inconclusive [inhibitor, single point]"
2,CCSc1ccc(-c2cccc([N+](=O)[O-])c2)nn1,inactive
3,CCOC(=O)C1CCCN(C(=O)CCCn2c(=O)c3cccn3c3cccnc32)C1 (stereo not drawn),"inconclusive [inhibitor, partial curve]"
4,CNC(=S)N(Cc1ccc(OC)cc1)C1CC(=O)N(c2ccc(Cl)cc2)C1=O (stereo not drawn),"inconclusive [inhibitor, partial curve]"
5,CCN=C1S/C(=C\c2cn(CC(=O)NCc3ccco3)c3ccccc23)C(=O)N1CC,"inconclusive [inhibitor, single point]"
6,COC(=O)CCC(=O)OC1(C)C(=O)C=C2C=C(C3CC3)N(C3CC3)C=C2C1=O (stereo not drawn),inactive
7,O=C(c1ccc(COc2ccc(Br)cc2)o1)N1N=C(C(F)F)CC1(O)C(F)F (stereo not drawn),"inconclusive [inhibitor, single point]"
8,Cn1c(SCC(=O)N/N=C/C=C/c2ccccc2[N+](=O)[O-])nc2ccccc21,"inconclusive [activator, single point]"
9,Cc1ccc(-c2n[nH]c(=S)nc2-c2ccc(C)cc2)cc1,"inconclusive [inhibitor, single point]"
10,COCCCNC(=O)c1cccn2c(=O)c3cc4ccccc4cc3nc12,inactive
11,Cc1c(Cl)cccc1NC(=S)N(CCN(C)C)C(C)c1ccccn1 (stereo not drawn),"inconclusive [inhibitor, single point]"
12,O=C1c2ccccc2C2(c3ccc(F)cc3)NCCN12 (stereo not drawn),inactive
13,Nc1nc(CCl)nc(Nc2cccc3ccccc23)n1,active: 10 µM
14,O=C1CSC(c2cn(-c3ccccc3)nc2-c2ccccc2)N1Cc1ccco1 (stereo not drawn),"inconclusive [inhibitor, single point]"
15,COCCn1cnnc1SCC(=O)Nc1cc(OC)c([N+](=O)[O-])cc1C,inactive
16,N#Cc1nc(-c2cccc3ccccc23)oc1NCCN1CCCCC1,inactive
17,CCCC(=O)NC(c1cccs1)c1cc(Cl)c2cccnc2c1O (stereo not drawn),active: 0.501 µM
18,Cc1ccc(N=CC=C2OC(C)(C)C(C)(C)O2)cc1,inactive
19,O=[N+]([O-])c1cc(Br)c(O)c(/C=N/Nc2nc3ccccc3s2)c1,"inconclusive [inhibitor, partial curve]"
20,COc1cc(CCC(=O)OCC(=O)Nc2c(Cl)cccc2Cl)cc(OC)c1OC,"inconclusive [inhibitor, full curve]"
21,CCCn1c(=S)[nH]c2cc(C(=O)N3CCc4ccccc43)ccc2c1=O,active: 3.55 µM
22,COc1ccccc1OCCCOc1cccc(/C=C2\SC(=O)NC2=O)c1,"inconclusive [inhibitor, partial curve, poor fit]"
23,Nc1nc(N)c(C=Nc2ccc(Br)cc2)c(Nc2ccc(Br)cc2)n1,"inconclusive [inhibitor, single point]"
24,O=C(Nc1nccs1)c1ccc(Cl)c(S(=O)(=O)N2CCCCC2)c1,"inconclusive [inhibitor, single point]"
25,Cc1ccc(-c2nnc(N3CCC(C)CC3)c3ccccc23)cc1C,active: 17.8 µM

row,Compound,Potency
1,Cc1cc(C(=O)Oc2cccnc2)ccc1[N+](=O)[O-],"inconclusive [activator, single point]"
2,COC(=O)c1cn(NC(=O)/C=C/c2cccc(OC)c2OC)c(=O)c2ccccc12,inactive
3,Cc1ccc(-c2nn3c(C)nnc3s2)cc1NC(=O)c1ccc(-c2ccc(Cl)cc2Cl)o1,"inconclusive [inhibitor, single point]"
4,CCn1cc(C(=O)NCC2CCCO2)c(=O)c2cc(S(=O)(=O)N3CCC(C)CC3)ccc21 (stereo not drawn),inactive
5,CCCC(=O)Nc1ccc(-c2nc3cc(C)c(C)cc3o2)cc1,"inconclusive [inhibitor, full curve]"
6,Cc1cc(-n2[nH]c(C)c(C)c2=O)nc(-c2ccccc2O)n1,"inconclusive [inhibitor, single point]"
7,CCCSc1nsc(NC(=O)CCC)n1,inactive
8,O=C(N/N=C/c1cc(Br)c(Br)o1)c1cccnc1,"inconclusive [inhibitor, single point]"
9,C[C@@H]1C=C[C@](Cc2ccccc2)(C(=O)NCCc2c[nH]c3ccccc23)N1C(=O)c1ccccc1,inactive
10,COc1ccccc1N1CCN(C(=O)Cn2cnc3c2c(=O)n(C)c(=O)n3C)CC1,"inconclusive [inhibitor, partial curve]"
11,COC(=O)N1C(=O)[C@](c2ccccc2)(C2CCCCC2)N1C(=O)OC,"inconclusive [inhibitor, single point]"
12,COc1cccc2sc(N(CCN(C)C)C(=O)/C=C/c3cccs3)nc12,"inconclusive [inhibitor, single point]"
13,NS(=O)(=O)c1ccc(N/N=C/c2cn(-c3ccccc3)nc2-c2cccs2)cc1,"inconclusive [inhibitor, single point]"
14,CC(C)C(=O)Nc1ccc(-c2nc3ncccc3o2)cc1,"inconclusive [inhibitor, partial curve]"
15,Cc1ccc(S(=O)(=O)N2CCN=C2SCc2c(F)cccc2Cl)cc1,inactive
16,O=C(Nc1ccccn1)c1ccc(S(=O)(=O)c2ccc(Cl)cc2)cc1,"inconclusive [inhibitor, single point]"
17,Cc1cc(N=Cc2c(O)n(-c3cccc(C(F)(F)F)c3)c(=O)c3ccccc23)no1,inactive
18,Cc1ccccc1OCC(=O)Nc1ccc2[nH]ncc2c1,"inconclusive [activator, single point]"
19,CC(C)CN1C(=O)c2ccc(NC(=O)c3ccccc3F)cc2C1=O,inactive
20,COc1ccc2cc(-c3cc(C(=O)OCC(=O)NC4CCS(=O)(=O)C4)c4ccccc4n3)ccc2c1 (stereo not drawn),active: 1.78 µM
21,O=C(N/N=C/c1cc(Br)ccc1O)Nc1ccccc1,active: 11.2 µM
22,CC1(C)CCN2CCC(C)(C)c3c(O)ccc1c32,"inconclusive [inhibitor, single point]"
23,C=CCn1c(=S)[nH]c2ccccc2c1=O,active: 4.47 µM
